Data from PMC4336329 (PLoS ONE, 2015).
The whole screen tested about 310,000 compounds, of which about 2,200 (0.71%) showed an effect of 50% or more. Effects have a minus sign here. The list shows a part of the results.

What follows are molecules tested against human ether-à-go-go-related gene (hERG) potassium channel (human, UniProt Q12809) (assay: primary screen, population patch clamp on CHO cells stably expressing hERG).
Chain of human ether-à-go-go-related gene (hERG) potassium channel (Q12809 whole entry, looked up): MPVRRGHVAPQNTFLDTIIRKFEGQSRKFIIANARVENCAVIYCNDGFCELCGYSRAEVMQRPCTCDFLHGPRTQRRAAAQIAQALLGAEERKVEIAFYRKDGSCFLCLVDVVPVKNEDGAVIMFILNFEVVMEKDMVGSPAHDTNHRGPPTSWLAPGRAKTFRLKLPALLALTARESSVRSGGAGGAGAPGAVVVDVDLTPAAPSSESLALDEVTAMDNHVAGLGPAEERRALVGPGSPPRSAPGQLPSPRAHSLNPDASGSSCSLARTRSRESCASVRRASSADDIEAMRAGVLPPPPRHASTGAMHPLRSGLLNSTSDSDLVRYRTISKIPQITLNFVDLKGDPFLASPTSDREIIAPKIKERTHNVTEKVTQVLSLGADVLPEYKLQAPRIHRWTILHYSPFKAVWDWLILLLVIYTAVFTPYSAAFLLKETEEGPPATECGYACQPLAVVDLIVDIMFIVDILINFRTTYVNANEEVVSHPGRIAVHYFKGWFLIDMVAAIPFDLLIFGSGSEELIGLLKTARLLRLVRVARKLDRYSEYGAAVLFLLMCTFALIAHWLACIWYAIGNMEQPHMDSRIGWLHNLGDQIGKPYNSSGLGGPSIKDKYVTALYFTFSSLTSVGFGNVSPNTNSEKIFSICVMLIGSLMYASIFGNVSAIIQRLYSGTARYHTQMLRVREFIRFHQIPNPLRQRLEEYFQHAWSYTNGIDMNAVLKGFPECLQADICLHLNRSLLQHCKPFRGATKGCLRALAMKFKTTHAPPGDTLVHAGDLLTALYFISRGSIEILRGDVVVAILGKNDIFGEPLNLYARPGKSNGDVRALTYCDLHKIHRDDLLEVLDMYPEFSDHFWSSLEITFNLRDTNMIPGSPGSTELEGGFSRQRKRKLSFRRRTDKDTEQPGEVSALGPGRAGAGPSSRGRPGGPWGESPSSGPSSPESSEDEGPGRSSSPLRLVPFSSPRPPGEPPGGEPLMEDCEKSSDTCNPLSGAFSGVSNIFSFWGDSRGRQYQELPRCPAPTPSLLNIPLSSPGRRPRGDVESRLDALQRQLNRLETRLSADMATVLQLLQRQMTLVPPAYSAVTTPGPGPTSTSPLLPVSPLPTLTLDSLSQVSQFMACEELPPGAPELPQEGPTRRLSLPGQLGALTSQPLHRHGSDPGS

Structure (SMILES)	hERG current change (%, negative = inhibition) at 1uM
COC(=O)c1cn(NC(=O)C2CCCO2)c(=O)c2ccccc12 (stereo not drawn)	14.6%
O=C(NC1CCCCC1)c1cccnc1C(=O)O	7.05%
CCOC(=O)N1CCC(NS(=O)(=O)c2cc3c(cc2Cl)NC(=O)CO3)CC1	-5.26%
CCc1cc(C(=O)NCC(c2cccs2)N2CCOCC2)sc1C (stereo not drawn)	1.52%
O=C(Nc1ccc(NC(=O)C2CC2)nc1)c1ccccc1F	9.96%
c1ccc(-n2cc(CN3CCCC3)c(-c3ccc4c(c3)OCO4)n2)cc1	-9.33%
Cc1ccc(CSCc2ccc(C(=O)NCCCN3CCOCC3)o2)cc1	-21.2%
O=C(Nc1cccc(-c2csc(Nc3ccccc3)n2)c1)c1ccccc1	0.795%
COc1cccc(COC(=O)CCNC(=O)c2ccc(Cl)cc2)c1OC	16%
COc1ccc(C(=O)N/C(=C\c2ccco2)C(=O)NC2CCS(=O)(=O)C2)cc1 (stereo not drawn)	12.4%
Cc1ccc(-c2ccc(CCC(=O)O)n2C(C)C)cc1	12.4%
COc1ccc(-n2nc(C(=O)NCC(=O)N3CCC4(CC3)OCCO4)c3ccccc3c2=O)c(OC)c1	2.3%
O=C1CCCN1CCC1CCN(C2CC(=O)N(c3ccc(Cl)cc3)C2=O)CC1 (stereo not drawn)	-1.45%
CC(C)N=C1NN=C(c2cccs2)C(CC(=O)O)S1 (stereo not drawn)	6.19%
Cc1ccc(CSCC(=O)N(C)CC(=O)Nc2ccc(Br)cc2C)cc1	-8.88%
CN1CCN(S(=O)(=O)c2ccc(N3CCN(S(=O)(=O)c4cccs4)CC3)nc2)CC1	19.1%
COC(=O)C1=C(c2ccc(F)cc2F)C[C@@H]2CC[C@H]1N2C(=O)NC1Cc2ccccc2C1	5.46%
COc1ccccc1NC(=O)COC(=O)c1ccccn1	13%
Cc1ccc(-c2cc3ccccc3nc2N2CCCC2)cc1	13.2%
COC(=O)CSc1nc2cc3c(cc2cc1C#N)OCO3	23.3%
Nc1nc(SCc2c(F)cccc2Cl)[nH]c(=O)c1-c1ccccc1	1.7%
O=C(c1cc2nc(-c3ccco3)cc(C(F)(F)F)n2n1)N1CCN(c2ccccc2)CC1	8.48%
Cn1c(=O)c2c(ncn2CC(=O)Nc2cccc(S(=O)(=O)Nc3ccccc3F)c2)n(C)c1=O	15.7%
CCOC(=O)C1C(C#N)=C(N)OC(C)=C1c1ccncc1 (stereo not drawn)	1.12%
